Source: the supplement of paper PMC4604168 (melanoma cell lines)
This is one part of the list. Most values come without repeats; read them as rough.

Assays:
Test in all cases: cell count relative to DMSO control; melanoma cells; higher = more viable cells
Settings in all cases: library dose: standard library concentration; 72 h
G361 = test system: G361
IPC-298 = test system: IPC-298
IST-MEL1 = test system: IST-MEL1
LB2518-MEL = test system: LB2518-MEL
LOXIMVI = test system: LOXIMVI
MEL-HO = test system: MEL-HO
MZ2-MEL = test system: MZ2-MEL
MeWo = test system: MeWo
RPMI7951 = test system: RPMI7951
RVH-421 = test system: RVH-421
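Further: cells treated in 1,536-well plates, then fixed and DAPI-stained, with nuclei counted from automated high-throughput microscope images.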

Compound | cell count (G361) [%] | cell count (IPC-298) [%] | cell count (IST-MEL1) [%] | cell count (LB2518-MEL) [%] | cell count (LOXIMVI) [%] | cell count (MEL-HO) [%] | cell count (MZ2-MEL) [%] | cell count (MeWo) [%] | cell count (RPMI7951) [%] | cell count (RVH-421) [%]
C=CCNC1=C2C[C@@H](C)C[C@H](OC)[C@H](O)[C@@H](C)/C=C(\C)[C@H](OC(N)=O)[C@@H](OC)/C=C\C=C(/C)C(=O)NC(=CC1=O)C2=O [Tanespimycin] + C=CCn1c(=O)c2cnc(Nc3ccc(N4CCN(C)CC4)cc3)nc2n1-c1cccc(C(C)(C)O)n1 [MK1775] (first compound 0.01 µM, partner dose 0.1 µM) | 62.2 | 72.9 | 42.4 | 33.8 | 80.4 | 83.1 | 106 | 62.1 | 23.1 | 13.5
CS(=O)(=O)CCNCc1ccc(-c2ccc3ncnc(Nc4ccc(OCc5cccc(F)c5)c(Cl)c4)c3c2)o1 [lapatinib] + O=C1NC(=O)/C(=C/c2ccc(-c3ccc(F)cc3O)o2)S1 [AS252424] (first compound 4 µM, partner dose 5 µM) | 54.7 | 88 | 91 | 117 | 105 | 72.1 | 73.3 | 74.2 | 59.9 | 91.8
CNC(=O)c1cc(Oc2ccc(NC(=O)Nc3ccc(Cl)c(C(F)(F)F)c3)cc2)ccn1 [sorafenib] + Cn1nnc2c(C(N)=O)ncn2c1=O [temozolomide] (first compound 2 µM, partner dose 10 µM) | 97.2 | 95.7 | 77.9 | 89.8 | 116 | 84.3 | 106 | 76.5 | 85.6 | 89.5
C[C@@H](Oc1cc(-c2cnn(C3CCNCC3)c2)cnc1N)c1c(Cl)ccc(F)c1Cl [Crizotinib] + Nc1ncn([C@H]2C[C@H](O)[C@@H](CO)O2)c(=O)n1 [decitabine] (first compound 1 µM, partner dose 0.5 µM) | 76.2 | 54.4 | 79.3 | 76.4 | 119 | 73.4 | 73.1 | 66.3 | 104 | 73.2
C[C@@H](Oc1cc(-c2cnn(C3CCNCC3)c2)cnc1N)c1c(Cl)ccc(F)c1Cl [Crizotinib] + CCCCCCCCCCCC1=C(O)C(=O)C=C(O)C1=O [Embelin] (first compound 1 µM, partner dose 6 µM) | 77.1 | 80.2 | 81.3 | 91 | 260 | 90.5 | 111 | 89.9 | 94.5 | 102
CNC(=O)c1cc(Oc2ccc(NC(=O)Nc3ccc(Cl)c(C(F)(F)F)c3)cc2)ccn1 [sorafenib] + O=C(Nc1ccccc1)c1cc([N+](=O)[O-])ccc1Cl [GW9662] (first compound 2 µM, partner dose 10 µM) | 92.7 | 112 | 112 | 89.3 | 97.8 | 104 | 114 | 74.7 | 97.3 | 101
CNC(=O)c1cc(Oc2ccc(NC(=O)Nc3ccc(Cl)c(C(F)(F)F)c3)cc2)ccn1 [sorafenib] + Cn1cncc1[C@@](N)(c1ccc(Cl)cc1)c1ccc2c(c1)c(-c1cccc(Cl)c1)cc(=O)n2C [tipifarnib] (first compound 2 µM, partner dose 0.05 µM) | 75.6 | 103 | 88 | 80.4 | 133 | 107 | 111 | 85.8 | 113 | 80.2
CS(=O)(=O)CCNCc1ccc(-c2ccc3ncnc(Nc4ccc(OCc5cccc(F)c5)c(Cl)c4)c3c2)o1 [lapatinib] + Cc1nc(Nc2ncc(C(=O)Nc3c(C)cccc3Cl)s2)cc(N2CCN(CCO)CC2)n1 [dasatanib] (first compound 4 µM, partner dose 0.02 µM) | 67.9 | 79.1 | 73.1 | 80.3 | 18.7 | 71.7 | 46.2 | 74.8 | 24.7 | 71
CNC(=O)c1cc(Oc2ccc(NC(=O)Nc3ccc(Cl)c(C(F)(F)F)c3)cc2)ccn1 [sorafenib] + OCCn1cc(-c2cnc3nnn(Cc4ccc5ncccc5c4)c3n2)cn1 [PF04217903] (first compound 2 µM, partner dose 5 µM) | 90.3 | 96.1 | 84.2 | 75.8 | 91.5 | 98.7 | 110 | 74 | 63.3 | 102
CN1CCN(c2ccc3nc(-c4c(N)c5c(F)cccc5[nH]c4=O)[nH]c3c2)CC1 [Dovitinib] + CO[C@@H]1[C@H](N(C)C(=O)c2ccccc2)C[C@H]2O[C@]1(C)n1c3ccccc3c3c4c(c5c6ccccc6n2c5c31)C(=O)NC4 [Midostaurin] (first compound 0.5 µM, partner dose 0.4 µM) | 40.5 | 67.8 | 56.3 | 52 | 28.9 | 68.5 | 47.1 | 44.7 | 52.4 | 74.2
CS(=O)(=O)CCNCc1ccc(-c2ccc3ncnc(Nc4ccc(OCc5cccc(F)c5)c(Cl)c4)c3c2)o1 [lapatinib] + COCC[n+]1c2c(n(Cc3cnccn3)c1C)C(=O)c1ccccc1C2=O [YM155] (first compound 4 µM, partner dose 0.002 µM) | 12.5 | 15.6 | 38.2 | 3.65 | 37.4 | 28.9 | 6.82 | 7.52 | 25.5 | 46.4
CNC(=O)c1cc(Oc2ccc(NC(=O)Nc3ccc(Cl)c(C(F)(F)F)c3)cc2)ccn1 [sorafenib] + CCCS(=O)(=O)Nc1ccc(F)c(C(=O)c2c[nH]c3ncc(Cl)cc23)c1F [PLX4720] (first compound 2 µM, partner dose 0.4 µM) | 59.1 | 82.9 | 90 | 77.6 | 146 | 75.9 | 85.5 | 75 | 62.9 | 58.6
CNC(=O)c1cc(Oc2ccc(NC(=O)Nc3ccc(Cl)c(C(F)(F)F)c3)cc2)ccn1 [sorafenib] + C=CCNC1=C2C[C@@H](C)C[C@H](OC)[C@H](O)[C@@H](C)/C=C(\C)[C@H](OC(N)=O)[C@@H](OC)/C=C\C=C(/C)C(=O)NC(=CC1=O)C2=O [Tanespimycin] (first compound 2 µM, partner dose 0.01 µM) | 76.9 | 88.8 | 73.4 | 73.8 | 188 | 75.4 | 97.6 | 68.1 | 38.9 | 96.1
C=CCNC1=C2C[C@@H](C)C[C@H](OC)[C@H](O)[C@@H](C)/C=C(\C)[C@H](OC(N)=O)[C@@H](OC)/C=C\C=C(/C)C(=O)NC(=CC1=O)C2=O [Tanespimycin] + COc1cc2ncnc(Nc3ccc(Oc4ccccc4)cc3)c2cc1OC [SrcI1] (first compound 0.01 µM, partner dose 10 µM) | 50 | 79.4 | 75.1 | 92.9 | 64.9 | 74.6 | 86.8 | 56.3 | 17.8 | 88.6
C=CCNC1=C2C[C@@H](C)C[C@H](OC)[C@H](O)[C@@H](C)/C=C(\C)[C@H](OC(N)=O)[C@@H](OC)/C=C\C=C(/C)C(=O)NC(=CC1=O)C2=O [Tanespimycin] + COc1cc2c(Oc3ccc4[nH]c(C)cc4c3F)ncnc2cc1OCCCN1CCCC1 [cediranib] (first compound 0.01 µM, partner dose 2 µM) | 68.1 | 101 | 58.4 | 78.8 | 69.5 | 85.7 | 108 | 71.2 | 10.7 | 73.6
CN1CCN(c2ccc3nc(-c4c(N)c5c(F)cccc5[nH]c4=O)[nH]c3c2)CC1 [Dovitinib] + C[C@]1(c2nc3c(C(N)=O)cccc3[nH]2)CCCN1 [Veliparib] (first compound 0.5 µM, partner dose 7 µM) | 40.3 | 67.7 | 75.6 | 64.8 | 113 | 83.1 | 51.2 | 36.2 | 61.1 | 105
CN1CCN(c2ccc3nc(-c4c(N)c5c(F)cccc5[nH]c4=O)[nH]c3c2)CC1 [Dovitinib] + C[C@@H]1CCN(C(=O)CC#N)C[C@@H]1N(C)c1ncnc2[nH]ccc12 [CP690550] (first compound 0.5 µM, partner dose 5 µM) | 43.5 | 69.3 | 59.8 | 48.5 | 71.2 | 72.7 | 48.2 | 47.2 | 65.5 | 87.4
C=CCNC1=C2C[C@@H](C)C[C@H](OC)[C@H](O)[C@@H](C)/C=C(\C)[C@H](OC(N)=O)[C@@H](OC)/C=C\C=C(/C)C(=O)NC(=CC1=O)C2=O [Tanespimycin] + CCN(CC)CCCCNc1ncc2cc(-c3cc(OC)cc(OC)c3)c(NC(=O)NC(C)(C)C)nc2n1 [PD173074] (first compound 0.01 µM, partner dose 0.5 µM) | 70.7 | 86.6 | 67.6 | 76.1 | 49.8 | 91 | 96.6 | 77.7 | 15.8 | 85.6
CNC(=O)c1cc(Oc2ccc(NC(=O)Nc3ccc(Cl)c(C(F)(F)F)c3)cc2)ccn1 [sorafenib] + CN(NC(=O)CC(=O)NN(C)C(=S)c1ccccc1)C(=S)c1ccccc1 [STA4783] (first compound 2 µM, partner dose 0.03 µM) | 35.9 | 82.5 | 18 | 21.4 | 99 | 75.4 | 119 | 10.7 | 66.5 | 70.5
C[C@@H](Oc1cc(-c2cnn(C3CCNCC3)c2)cnc1N)c1c(Cl)ccc(F)c1Cl [Crizotinib] + Cn1cncc1[C@@](N)(c1ccc(Cl)cc1)c1ccc2c(c1)c(-c1cccc(Cl)c1)cc(=O)n2C [tipifarnib] (first compound 1 µM, partner dose 0.05 µM) | 68 | 88.1 | 70 | 61.7 | 78.4 | 81.1 | 83.2 | 71.5 | 56.2 | 77.9
